Test results reported in the supplement of paper PMC3334620.
The full ranking holds about 33,000 sequences; the median of “E-score (-0.5 to 0.5)” is about -0.043, and the highest 2% start at about 0.37. Some of the results follow.

molecular target: T1, Upc2 (UniProt Q12151); assay: PBM E-score (8-mer binding enrichment) (E-score (-0.5 to 0.5)); higher = stronger / more preferred TF binding; most listed sequences are background and not binding sites; details: protein concentration: 200 nM; construct: GST-full length
T1 sequence: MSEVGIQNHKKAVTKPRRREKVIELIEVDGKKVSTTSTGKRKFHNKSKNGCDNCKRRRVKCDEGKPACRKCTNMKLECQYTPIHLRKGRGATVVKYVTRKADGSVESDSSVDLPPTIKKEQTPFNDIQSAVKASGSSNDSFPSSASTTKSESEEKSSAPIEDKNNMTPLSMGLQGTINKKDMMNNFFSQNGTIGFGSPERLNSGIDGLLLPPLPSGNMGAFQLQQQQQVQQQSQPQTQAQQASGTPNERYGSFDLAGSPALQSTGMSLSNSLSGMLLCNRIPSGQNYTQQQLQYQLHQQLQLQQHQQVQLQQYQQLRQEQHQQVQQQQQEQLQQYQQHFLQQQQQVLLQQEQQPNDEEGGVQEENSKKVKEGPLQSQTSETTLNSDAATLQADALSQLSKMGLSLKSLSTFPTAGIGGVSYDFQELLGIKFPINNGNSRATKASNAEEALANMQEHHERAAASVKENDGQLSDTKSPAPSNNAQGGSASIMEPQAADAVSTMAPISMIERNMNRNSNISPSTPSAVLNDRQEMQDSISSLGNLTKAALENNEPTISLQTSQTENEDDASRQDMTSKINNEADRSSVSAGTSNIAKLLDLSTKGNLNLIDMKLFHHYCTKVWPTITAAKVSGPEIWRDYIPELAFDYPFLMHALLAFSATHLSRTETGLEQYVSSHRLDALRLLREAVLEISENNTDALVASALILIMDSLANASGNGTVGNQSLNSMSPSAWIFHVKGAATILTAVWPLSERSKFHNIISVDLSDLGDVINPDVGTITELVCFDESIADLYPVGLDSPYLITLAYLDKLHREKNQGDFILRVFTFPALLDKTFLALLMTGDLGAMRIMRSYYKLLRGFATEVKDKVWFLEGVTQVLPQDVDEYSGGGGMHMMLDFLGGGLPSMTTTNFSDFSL
In short: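 Detection of bound protein used fluorescent anti-GST, with scans normalised by masliner. The proteins were GST-tagged yeast transcription factors applied at about 100-200 nM to universal all-10-mer Agilent arrays made double-stranded by primer extension. Each ungapped eight-base word, pooled with its reverse complement, was scored with an E-score from the Universal PBM Analysis Suite.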

Sequence | PBM E-score
ACGCATGA | -0.00889
CTCAGCTA | -0.243
AGAAACTA | -0.199
TATGAGAA | -0.0454
AGGAACAT | -0.00387
CGGGCTAC | -0.0289
AGCTTTTA | 0.163
CTAACTGA | -0.154
GATCAATA | -0.168
CGTCCACG | -0.112
CAAGTAGC | -0.085
ATAATTCG | 0.24
CGAGATAC | 0.239
GTGGTCAA | -0.112
GAAATACA | -0.0342
AAGAAGAG | -0.145
CTCTGGGA | -0.238
AGTCCACC | -0.223
AGTGGGCA | 0.0532
ACCATGGA | -0.196
CGTGTCTA | -0.0877
GCGTGGAC | -0.181
GCGACGCA | 0.108
TGTACTAA | 0.0689
ACGCGAAC | 0.237

Sequence | PBM E-score
AAAGCGGC | -0.0359
CTCTCTTA | 0.095
CGAAGTTA | 0.0759
ACTTTAAA | 0.0868
AGACGTGG | -0.284
AGTGCTCA | -0.198
ACCGAGGT | 0.169
CGAATAAC | 0.178
GTGTTCAA | -0.00045
GAGCCAGC | -0.00989
CCTCACCG | -0.156
CCCCCGAC | -0.169
AATCCTGT | 0.00487
CAAGCTCA | -0.152
AGCGGTGG | -0.251
CGATTATA | 0.203
AAGTCCTC | -0.265
CGTTATTC | 0.0151
AGCATGTA | 0.0436
GCTGAGAA | -0.275
CTTATGAC | 0.106
GAATTCGA | -0.139
ATAGAGAG | -0.266
TGTTGCAA | -0.0379
TATGAGCA | -0.133

Sequence | PBM E-score
GGTATACC | 0.214
CACCGAGC | -0.0627
GGGGACCA | -0.288
AGTGTTCC | -0.0588
CCATGCAC | -0.262
ACTTTTCC | 0.0008
CCCGCGAC | -0.0906
AGTTAGCG | 0.0707
CAAGCCCC | -0.133
GAGCGGCA | -0.106
CAGTGACA | -0.229
ATATAAAT | 0.0307
AACCCAAA | 0.0131
ACTAGCTG | 0.0513
GGACTCAA | -0.229
ATAACGAG | 0.191
GGAACGCA | 0.174
CACTTAGA | -0.135
GTAACAGA | 0.125
CGTTACAA | 0.0563
ATGACGCG | 0.116
CTCACTTA | -0.0558
CGCCCTAG | -0.158
CACGTGGA | -0.0559
AACTGTCC | -0.15

Sequence | PBM E-score
CTCGTAAA | 0.482
CATGTTTC | -0.0562
TGATTGAA | 0.174
ATTTATCA | -0.112
AGGCCCGA | -0.0488
ACGAAAGA | 0.244
CCCGGCAG | -0.181
CAAGGATC | 0.0517
ACTAGATC | -0.162
ATGCGTGG | -0.0641
ACCTAACG | -0.0308
ATCCGTGA | 0.0937
ATCTAAGG | -0.13
GACCTCGA | 0.0548
TTGAACAA | -0.0894
AAAGTGTA | -0.071
TCGCTTAA | 0.403
AGACCGTA | 0.287
AAAAGATG | -0.00218
CAGAACCA | -0.212
CCGAGATC | 0.018
GATCGTAA | 0.396
AACGCGAT | 0.2
ATTAGAAT | 0.0107
CGCCAGAG | -0.264

Sequence | PBM E-score
CTGCAAAA | -0.0253
ACGCATTG | -0.0885
ATTACAGC | -0.0232
GACGTCGC | 0.0521
CATGGGCC | -0.265
CCCAACTC | -0.0141
CAAGGTTC | -0.216
AAAACCTT | -0.237
GACAAGAA | -0.0295
GTGCTGAA | 0.0654
GTCCCGAC | 0.00352
ACCGACGA | 0.171
CTATCCTC | 0.0494
ATATCGGC | 0.0158
TACCAGTA | 0.0883
GGAAGTAC | -0.149
ACCGCGGT | 0.0762
CCCTTCCG | -0.264
ATATATCC | 0.0459
AGGTAGAT | -0.0192
CATTAGGA | -0.088
GGGTGGAA | -0.243
GGTCGTAC | 0.462
GAAGACTC | -0.119
TATTAAAA | 0.117

Sequence | PBM E-score
ACTGTTAA | 0.0793
CTCTAGAG | -0.154
AATCTGCG | 0.132
AACAGTAA | -0.0904
ACTAGAGT | -0.203
AAAAAGTA | 0.0865
CCCTTTAC | 0.25
ACAGCTCT | -0.258
ATCGAGGC | -0.0501
ACGCCCGC | 0.0502
AACTTTCG | 0.0942
CAACGATG | 0.0412
GATGACAC | 0.0272
AATGGATA | -0.013
AGGAAAAG | -0.134
GTCTGTCA | 0.0217
CCCTCTGA | -0.159
CATCGTCA | -0.163
GTGGGCCA | -0.0364
GTTCAGCA | 0.171
CACCTGCC | -0.265
AGATGTAT | -0.0123
ACAGAATC | -0.0506
ACCTGGTG | -0.0762
AAAGGAGT | -0.0695

Sequence | PBM E-score
GGTCCAAC | -0.134
AATCGCGG | -0.106
GACTGAAC | 0.0547
CGTCAGGA | -0.0877
GATGTACA | -0.098
TAACTCGA | 0.109
AACTTGTC | -0.0131
CAGTAGCG | 0.0627
CTAGGTAA | -0.158
ACCGCTAG | -0.136
AAACGAGG | 0.481
ACACGTGA | 0.00354
TATATTAA | 0.113
ACTGCGAC | 0.0311
AGTGGTGG | -0.0594
GAGCTGTA | -0.177
CCCTGTTA | -0.0929
GGCGGCAC | -0.0468
CATGTGCG | -0.0691
AAATAAAT | 0.153
CGTCACTC | -0.0671
TCACGCAA | -0.0853
